Laboratory results taken from a collection of fitness landscapes (doi:10.1016/j.celrep.2020.107928).
Over roughly 81,000 sequences, “one-hybrid fitness for binding parS DNA” has its median near -0.17; the highest 2% begin near 0.51. The list shows a part of the results.

B1: Caulobacter ParB omega fusion; a variant is named by its letters at X, in order, B8GW30 (parent)
chain: MESVVVGEPGMSEGRRGLGRGLSALLGEVDAAPAQAPGEQLGGSREAPIEILQRNPDQPRRTFREEDLEDLSNSIREKGVLQPILVRPSPDTAGEYQIVAGERAWRAAQRAGLKTVPIMVRELDDLAVLEIGIIENVQRADLNVLEEALSYKVLMEKFERTQENIAQTIGKSXSHVANXMRLLXLPDEVQSYLVSGELTAXHARAIAAAADPVALAKQIIEGGLSVRETEALARKAPNLSAGKSKGGRPPRVKDTDTQALESDLSSVLGLDVSIDHRGSTGTLTITYATLEQLDDLCNRLTRGI

Variants of: B1
Assay: one-hybrid fitness for binding parS DNA (scaled: cognate 1, non-cognate 0); higher = stronger binding
Conditions: with parS DNA site
Method in brief: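 Caulobacter ParB libraries with four specificity codons randomised were screened by bacterial one-hybrid selection in the E. coli USO strain, using a HIS3 reporter whose site lies 19 bp from the promoter. Selection ran for 48 hours at 37°C on M9 lacking histidine, with 0.1 mM IPTG and 5 mM 3-AT. Plasmids were Illumina-sequenced before and after selection, three replicate libraries were pooled, and variants with under 10 reads were dropped. Fitness is the log change in each variant's read ratio to wild type, rescaled against the cognate and non-cognate sites.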

How did the “one-hybrid fitness for binding parS DNA” value turn out when VPCS was run?
Its value is no more than 0.2.

How did the “one-hybrid fitness for binding parS DNA” value turn out when ACGR was run?
The value was no more than 0.2.

Which “one-hybrid fitness for binding parS DNA” value does the source give for KTPQ here?
The value was no more than 0.2.

Which “one-hybrid fitness for binding parS DNA” value does the source give for AALE here?
Its value is no more than 0.2.

Which “one-hybrid fitness for binding parS DNA” value does the source give for FHCC here?
Its value is no more than 0.2.

With YNNR as the variant, how does the “one-hybrid fitness for binding parS DNA” value read?
Its value is no more than 0.2.

For SNDS, which “one-hybrid fitness for binding parS DNA” value is on record?
The value was no more than 0.2.

Which “one-hybrid fitness for binding parS DNA” value does the source give for DMIY here?
Its value is no more than 0.2.

For VNKK, which “one-hybrid fitness for binding parS DNA” value is on record?
The value was no more than 0.2.

Which “one-hybrid fitness for binding parS DNA” value does the source give for VQTG here?
Its value is no more than 0.2.

For NLTF, which “one-hybrid fitness for binding parS DNA” value is on record?
Its value is no more than 0.2.

For NIRL, which “one-hybrid fitness for binding parS DNA” value is on record?
Its value is no more than 0.2.

For RFEI, which “one-hybrid fitness for binding parS DNA” value is on record?
The value was no more than 0.2.

HDMT was tested. Which “one-hybrid fitness for binding parS DNA” value did it give?
The value was no more than 0.2.

For SWGT, which “one-hybrid fitness for binding parS DNA” value is on record?
Its value is no more than 0.2.

Which “one-hybrid fitness for binding parS DNA” value does the source give for CRMY here?
Its value is no more than 0.2.

Which “one-hybrid fitness for binding parS DNA” value does the source give for NQPC here?
Its value is no more than 0.2.

With RYQY as the variant, how does the “one-hybrid fitness for binding parS DNA” value read?
The value was 0.422.

With RMAT as the variant, how does the “one-hybrid fitness for binding parS DNA” value read?
The value was 0.913.

EVDK was tested. Which “one-hybrid fitness for binding parS DNA” value did it give?
Its value is no more than 0.2.

With TLRQ as the variant, how does the “one-hybrid fitness for binding parS DNA” value read?
The value was no more than 0.2.

With HQDA as the variant, how does the “one-hybrid fitness for binding parS DNA” value read?
The value was no more than 0.2.

QNEI was tested. Which “one-hybrid fitness for binding parS DNA” value did it give?
Its value is no more than 0.2.

Which “one-hybrid fitness for binding parS DNA” value does the source give for QSFK here?
Its value is no more than 0.2.

For LYQG, which “one-hybrid fitness for binding parS DNA” value is on record?
Its value is no more than 0.2.

How did the “one-hybrid fitness for binding parS DNA” value turn out when EGSS was run?
Its value is no more than 0.2.

Which “one-hybrid fitness for binding parS DNA” value does the source give for PMFG here?
The value was no more than 0.2.

KKAG was tested. Which “one-hybrid fitness for binding parS DNA” value did it give?
Its value is no more than 0.2.

With VTSY as the variant, how does the “one-hybrid fitness for binding parS DNA” value read?
Its value is no more than 0.2.

Which “one-hybrid fitness for binding parS DNA” value does the source give for SYYK here?
Its value is no more than 0.2.

WRYY was tested. Which “one-hybrid fitness for binding parS DNA” value did it give?
The value was no more than 0.2.

How did the “one-hybrid fitness for binding parS DNA” value turn out when AFST was run?
Its value is no more than 0.2.

VLRA was tested. Which “one-hybrid fitness for binding parS DNA” value did it give?
Its value is no more than 0.2.

FCMR was tested. Which “one-hybrid fitness for binding parS DNA” value did it give?
Its value is no more than 0.2.

How did the “one-hybrid fitness for binding parS DNA” value turn out when HVGV was run?
The value was no more than 0.2.

For AKEI, which “one-hybrid fitness for binding parS DNA” value is on record?
Its value is no more than 0.2.

Which “one-hybrid fitness for binding parS DNA” value does the source give for SVVL here?
Its value is no more than 0.2.

For HKYK, which “one-hybrid fitness for binding parS DNA” value is on record?
Its value is no more than 0.2.

Which “one-hybrid fitness for binding parS DNA” value does the source give for HEHL here?
Its value is no more than 0.2.

SMEC was tested. Which “one-hybrid fitness for binding parS DNA” value did it give?
The value was no more than 0.2.

With HVFS as the variant, how does the “one-hybrid fitness for binding parS DNA” value read?
Its value is no more than 0.2.

With QTTF as the variant, how does the “one-hybrid fitness for binding parS DNA” value read?
The value was no more than 0.2.

With DTQC as the variant, how does the “one-hybrid fitness for binding parS DNA” value read?
Its value is no more than 0.2.

Which “one-hybrid fitness for binding parS DNA” value does the source give for RNEP here?
Its value is no more than 0.2.

WPNN was tested. Which “one-hybrid fitness for binding parS DNA” value did it give?
The value was no more than 0.2.

For TYVM, which “one-hybrid fitness for binding parS DNA” value is on record?
Its value is no more than 0.2.

How did the “one-hybrid fitness for binding parS DNA” value turn out when GNCM was run?
Its value is no more than 0.2.

Which “one-hybrid fitness for binding parS DNA” value does the source give for PNYH here?
The value was no more than 0.2.

PNLF was tested. Which “one-hybrid fitness for binding parS DNA” value did it give?
Its value is no more than 0.2.

How did the “one-hybrid fitness for binding parS DNA” value turn out when KWLM was run?
Its value is no more than 0.2.

With AQKN as the variant, how does the “one-hybrid fitness for binding parS DNA” value read?
The value was no more than 0.2.

Which “one-hybrid fitness for binding parS DNA” value does the source give for QTRW here?
The value was no more than 0.2.

Which “one-hybrid fitness for binding parS DNA” value does the source give for TLHY here?
The value was no more than 0.2.

IRPS was tested. Which “one-hybrid fitness for binding parS DNA” value did it give?
The value was no more than 0.2.

With LASI as the variant, how does the “one-hybrid fitness for binding parS DNA” value read?
The value was no more than 0.2.

For GDSG, which “one-hybrid fitness for binding parS DNA” value is on record?
The value was no more than 0.2.

Which “one-hybrid fitness for binding parS DNA” value does the source give for ASWC here?
Its value is no more than 0.2.

Which “one-hybrid fitness for binding parS DNA” value does the source give for CKTK here?
The value was no more than 0.2.

With AGTV as the variant, how does the “one-hybrid fitness for binding parS DNA” value read?
The value was no more than 0.2.

FTVV was tested. Which “one-hybrid fitness for binding parS DNA” value did it give?
Its value is no more than 0.2.

RNNQ was tested. Which “one-hybrid fitness for binding parS DNA” value did it give?
The value was no more than 0.2.

With QPRN as the variant, how does the “one-hybrid fitness for binding parS DNA” value read?
Its value is no more than 0.2.

How did the “one-hybrid fitness for binding parS DNA” value turn out when TMDR was run?
The value was no more than 0.2.

With MICS as the variant, how does the “one-hybrid fitness for binding parS DNA” value read?
Its value is no more than 0.2.

For RCNI, which “one-hybrid fitness for binding parS DNA” value is on record?
The value was no more than 0.2.

For GEYF, which “one-hybrid fitness for binding parS DNA” value is on record?
Its value is no more than 0.2.

Which “one-hybrid fitness for binding parS DNA” value does the source give for LDWC here?
The value was no more than 0.2.

Which “one-hybrid fitness for binding parS DNA” value does the source give for QMPN here?
The value was no more than 0.2.

How did the “one-hybrid fitness for binding parS DNA” value turn out when RCLE was run?
The value was 0.214.

How did the “one-hybrid fitness for binding parS DNA” value turn out when LPWR was run?
Its value is no more than 0.2.

Which “one-hybrid fitness for binding parS DNA” value does the source give for RHTF here?
The value was no more than 0.2.

For QEYG, which “one-hybrid fitness for binding parS DNA” value is on record?
The value was no more than 0.2.

RTFG was tested. Which “one-hybrid fitness for binding parS DNA” value did it give?
The value was 1.01.

With KVHS as the variant, how does the “one-hybrid fitness for binding parS DNA” value read?
Its value is no more than 0.2.

For FSRS, which “one-hybrid fitness for binding parS DNA” value is on record?
The value was no more than 0.2.

QIMW was tested. Which “one-hybrid fitness for binding parS DNA” value did it give?
The value was no more than 0.2.

HSGC was tested. Which “one-hybrid fitness for binding parS DNA” value did it give?
Its value is no more than 0.2.

Which “one-hybrid fitness for binding parS DNA” value does the source give for GRIC here?
Its value is no more than 0.2.

Which “one-hybrid fitness for binding parS DNA” value does the source give for LMHM here?
The value was no more than 0.2.

With AHSS as the variant, how does the “one-hybrid fitness for binding parS DNA” value read?
The value was no more than 0.2.

YFHT was tested. Which “one-hybrid fitness for binding parS DNA” value did it give?
The value was no more than 0.2.

How did the “one-hybrid fitness for binding parS DNA” value turn out when DKRV was run?
The value was no more than 0.2.

NHQC was tested. Which “one-hybrid fitness for binding parS DNA” value did it give?
The value was no more than 0.2.

Which “one-hybrid fitness for binding parS DNA” value does the source give for QRAR here?
Its value is no more than 0.2.

With IQIS as the variant, how does the “one-hybrid fitness for binding parS DNA” value read?
The value was no more than 0.2.

How did the “one-hybrid fitness for binding parS DNA” value turn out when TFHM was run?
Its value is no more than 0.2.

TVDA was tested. Which “one-hybrid fitness for binding parS DNA” value did it give?
Its value is no more than 0.2.

With ESFG as the variant, how does the “one-hybrid fitness for binding parS DNA” value read?
Its value is no more than 0.2.

Which “one-hybrid fitness for binding parS DNA” value does the source give for CAPN here?
The value was no more than 0.2.

With ANQD as the variant, how does the “one-hybrid fitness for binding parS DNA” value read?
The value was no more than 0.2.

Which “one-hybrid fitness for binding parS DNA” value does the source give for GQIV here?
Its value is no more than 0.2.

How did the “one-hybrid fitness for binding parS DNA” value turn out when RGLL was run?
The value was no more than 0.2.

KTFG was tested. Which “one-hybrid fitness for binding parS DNA” value did it give?
The value was no more than 0.2.

With GYPL as the variant, how does the “one-hybrid fitness for binding parS DNA” value read?
Its value is no more than 0.2.

For AKLL, which “one-hybrid fitness for binding parS DNA” value is on record?
The value was no more than 0.2.

With RMTH as the variant, how does the “one-hybrid fitness for binding parS DNA” value read?
Its value is 0.218.

For CIMY, which “one-hybrid fitness for binding parS DNA” value is on record?
Its value is no more than 0.2.
